Assay results: PubChem BioAssay AID1345083 (National Center for Advancing Translational Sciences (NCATS), 2018)
Among all 94,000 compounds or so, about 6,200 (6.6%) were called active. Inconclusive results, whose numbers are uncertain, are shown with a selection of clear calls. Calls follow the shape of the dose curve; as a rule, active = well fitted inhibition curve with a large enough effect; inconclusive = small, poorly fitted or top-dose-only effect; inactive = flat fitted curve, though single readings scatter. Where the call is inconclusive, the potency comes from a doubtful curve fit.
Potency is read from the fitted curve at half-maximal effect; tags tell the direction and shape of the fitted curve.

Assay: Cytotoxic Profiling in HEK 293 Cell Line of Diverse Libraries Using Quantitative High-Throughput Screening; also: nearly all actives have a fitted effect of over 60% in size
Conditions: HEK 293 viability, ATP luminescence (CellTiter-Glo), 48-72 h; series mostly up to 115 µM
Procedure, shortened: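 250 HEK 293 cells/well; compound by pintool; incubated 48 or 72 hr at 37 degree Celsius; CellTiter-Glo added, 10 min RT, luminescence imaged.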
For `CCOc1ccc(-c2nc(C3CC(=O)N(c4ccc(F)c(Cl)c4)C3)no2)cc1OCC` (stereo not given), the Potency was inconclusive: 39.8 µM [inhibitor, full curve]. For `CCC(=O)N(C1CCOCC1)C1CCN(S(=O)(=O)c2ccc3c(c2)CCC3)CC1`, the Potency was inconclusive: 79.4 µM [inhibitor, single point]. In the case of `COc1ccc(-c2cc(N3CCCC(NC(=O)c4ccc(N(C)C)cc4)C3)n[nH]2)cc1` (stereo not given), the Potency is reported as active: 44.7 µM. For `Cc1ccc(C)c(C(=O)N2CCC3(CC2)NC(=O)N(c2cccc(F)c2)N3)c1`, the Potency was inconclusive: 44.7 µM [inhibitor, partial curve, poor fit]. With `Cc1cc(Cn2cc3c4c(cccc42)[C@H](CC(C)C)N[C@H](C(=O)NCCN(C)C)C3)no1` the Potency was active: 35.5 µM. For `CCOc1cccc(CNC(=O)c2noc(-c3ccc4c(c3)OCO4)n2)c1`, the Potency was inconclusive: 79.4 µM [inhibitor, partial curve, poor fit]. With `COc1ccc(-c2noc([C@@H]3CCCN3C(=O)c3ccc(C)nc3)n2)cc1` the Potency was inconclusive: 89.1 µM [inhibitor, partial curve, poor fit]. With `Cc1nc(N2CCC(NC(=O)c3ccc(C)s3)CC2)cc(C(F)(F)F)n1` the Potency was “inactive”. With `COc1cccc(-c2ccc(C(=O)NCCN[S+](=O)([O-])c3ccccc3)cc2)c1` the Potency was active: 44.7 µM. In the case of `Cc1nc2cc(S(=O)(=O)N3CCOCC3)ccc2n1CCNC(=O)C(C)O` (stereo not given), the Potency is reported as inconclusive: 35.5 µM [inhibitor, single point]. In the case of `O=C(c1cccc(Cl)c1)N1CCn2c(nn(-c3ccc(C(F)(F)F)cc3)c2=O)C1`, the Potency is reported as inconclusive: 50.1 µM [inhibitor, partial curve, poor fit]. With `CCOc1ccc(OCC)c(-c2nc3ccc(-c4ccc(OC)c(OC)c4OC)cc3o2)c1` the Potency was inconclusive: 89.1 µM [inhibitor, single point]. With `Cc1nn(-c2ccccc2)c2c1C(C1CC1)N(C1CCN(C(=O)c3ccc(Cl)cc3)CC1)C2=O` (stereo not given) the Potency was “inactive”. In the case of `O=C(NCCc1ccccc1)c1cc(-c2ccsc2)c2nncn2n1`, the Potency is reported as active: 39.8 µM. In the case of `O=C(NCc1cccnc1)c1nc(-c2cccc(C(F)(F)F)c2)c2cnccn12`, the Potency is reported as inconclusive: 100 µM [inhibitor, single point]. With `COCCNc1ncc(-c2ccc(N3CCOCC3)cc2)c2c1OCC2` the Potency was inconclusive: 100 µM [inhibitor, partial curve, poor fit]. For `CC1=NOC2(CCN(C(=O)c3ccc4c(c3)OCO4)C2)C1` (stereo not given), the Potency was “inactive”. In the case of `Cc1ccccc1CN(CC1CCCO1)C(=O)c1cccc(CCC(C)(C)O)c1` (stereo not given), the Potency is reported as inconclusive: 79.4 µM [inhibitor, single point]. For `Cc1nonc1CN(C)C(=O)CC(c1ccccc1)c1cccc(Cl)c1` (stereo not given), the Potency was inconclusive: 89.1 µM [inhibitor, single point]. For `CNC(=O)[C@@H]1CN(C(=O)COc2ccc(Cl)cc2C)C[C@H]1CO`, the Potency was inconclusive: 79.4 µM [inhibitor, single point]. In the case of `O=C(Nc1cc(-c2ccccn2)nn1-c1ccccc1)c1ccc(C(F)(F)F)cc1`, the Potency is reported as inconclusive: 79.4 µM [inhibitor, partial curve, poor fit]. With `Cc1cn2nc(C(=O)N3CCC(NC(=O)c4cc(Cl)ccc4F)CC3)cc2c(=O)[nH]1` the Potency was “inactive”. In the case of `O=C(NC1CCN(c2ccnc3ccnn23)CC1)c1ccc(F)cc1`, the Potency is reported as inconclusive: 50.1 µM [inhibitor, partial curve, poor fit]. For `COc1ccc(CN2CCCC(c3nn(-c4ccc(Cl)cc4)c(=O)[nH]3)C2)cc1` (stereo not given), the Potency was inconclusive: 79.4 µM [inhibitor, partial curve, poor fit]. In the case of `CCN1c2cc(C(=O)Nc3ccc(C#N)cc3)ccc2C(=O)N2CCCCCC21` (stereo not given), the Potency is reported as inconclusive: 44.7 µM [inhibitor, partial curve, poor fit]. With `COc1ccc(-c2ccc3nnc(CNC(=O)c4ccc(OC)cc4C)n3n2)cc1` the Potency was inconclusive: 89.1 µM [inhibitor, single point]. With `CN(C)C[C@@H]1CN(c2ncccn2)C[C@H]1NS(=O)(=O)c1cccnc1` the Potency was inconclusive: 89.1 µM [inhibitor, single point]. With `Cn1ccc(NC(=O)C2(C)CCc3cnc(NCc4ccccc4)nc32)n1` (stereo not given) the Potency was inconclusive: 100 µM [inhibitor, partial curve, poor fit]. In the case of `O=C(COc1ccc(Cl)cc1)N1CCN(c2cc(-c3ccccc3)[nH]n2)CC1`, the Potency is reported as active: 89.1 µM. In the case of `CC1=C(C(=O)OC(C)(C)C)C(c2ccc(Cl)cc2)N2C(CC(=O)N3CCOCC3)=CSC2=N1` (stereo not given), the Potency is reported as inconclusive: 35.5 µM [inhibitor, partial curve, poor fit]. With `COc1ccc(C(=O)NCc2nnc3c(-c4nc(C(C)C)no4)cccn23)cc1F` the Potency was “inactive”. For `Fc1cccc(CN2CCC(N3CC(OCC4CC4)C34CCCCC4)CC2)c1` (stereo not given), the Potency was inconclusive: 50.1 µM [inhibitor, partial curve, poor fit]. In the case of `O=C(NC1CCCN(c2ccnc3ccnn23)C1)c1cccc(Br)c1` (stereo not given), the Potency is reported as active: 79.4 µM. For `COc1cc(CN2CCN(Cc3cccc(SC)c3)CC2CCO)cc(OC)c1` (stereo not given), the Potency was inconclusive: 89.1 µM [inhibitor, partial curve, poor fit]. For `CCCN1C(=O)CCc2cc(NC(=O)Cc3ccccc3OC)ccc21`, the Potency was inconclusive: 89.1 µM [inhibitor, single point]. In the case of `COc1ccc(-c2[nH]nc3ncc(C(=O)N(C)c4cccnc4)nc23)c(C)c1`, the Potency is reported as inconclusive: 50.1 µM [inhibitor, partial curve, poor fit]. With `CCCn1cc2c3c(cccc31)CN(C(=O)c1ccccc1OC)CC2` the Potency was inconclusive: 39.8 µM [inhibitor, partial curve, poor fit]. In the case of `COc1ccc(CCN2CCC(CN(C)Cc3nc(C(C)C)cs3)CC2)cc1`, the Potency is reported as active: 31.6 µM. In the case of `CC(C)CC(C)NC(=O)c1noc(-c2ccc[nH]c2=O)n1` (stereo not given), the Potency is reported as “inactive”. With `COc1ccc(N2CCN(C(=O)CC3CCCCN(Cc4ccccc4)C3=O)CC2)cc1` (stereo not given) the Potency was inconclusive: 20 µM [inhibitor, partial curve, poor fit].
